# Hit rate of the full screen: of about 45,000 compounds, about 65 (0.1%) were called active. Calls follow the shape of the dose curve; as a rule, active = well fitted activation curve with a large enough effect; inconclusive = small, poorly fitted or top-dose-only effect; inactive = no such curve, though single readings can be large or run the other way. This is one part of the list.
# Biological target: Galactocerebrosidase (Homo sapiens) (UniProt P54803)
# Test: A Novel Cell-Based Assay to Identify Small Molecules for B -Galactocerebrosidase; also: nearly all actives have a fitted effect of over 65% in size; as to activation: 0% is about no effect
# Conditions: 145M-Twi-hGALC-G270D cells (Twitcher mouse brain line with human GALC G270D), HMU-beta-Gal fluorescence, 48 h; activation: at the top concentration
# In short: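 Live 145M-Twi cells (Twitcher mouse brain-derived, GALC-null) stably expressing human GALC-G270D, with a wild-type GALC line, were compound-treated. Residual GALC activity was then read as fluorescence from 0.1 mM final HMU-β-gal at pH 5.2; higher signal means activation.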
# Potency is read from the fitted curve at half-maximal effect.
SMILES,activation,Potency
Cc1c(C(c2ccc(Br)cc2)c2c(O)c3ccccc3oc2=O)c(=O)n(-c2ccccc2)n1C (stereo unspecified),inactive: -17.3%,–
C=C(C)[C@H]1Cc2c(ccc3c2O[C@@H]2COc4cc(OC)c(OC)cc4[C@@H]2C3=O)O1,inactive: -9.92%,–
CN(C)c1ccc(NC(=O)c2sc3nc4c(cc3c2N)N2CCC4CC2)cc1,inactive: -1.37%,–
COC(=O)C1=CCCN(C)C1,inactive: -6.73%,–
Fc1ccc(C(OCCN2CCN(CCCc3ccccc3)CC2)c2ccc(F)cc2)cc1,inactive: -42.5%,–
CC(C)(C)NCC(O)c1cc(Cl)c(N)c(Cl)c1 (stereo unspecified),inactive: -12.3%,–
CCCC12CN3CC(C)(CN(C1)C3c1c(C)[nH]c(=O)[nH]c1=O)C2=O (stereo unspecified),inactive: -17.2%,–
CCCC1=Nc2cc(C(=O)NCCCN(CC)CC)ccc2Sc2ccccc21,inactive: -13.9%,–
COc1ccc(Br)cc1C1SCC(=O)Nc2c1c(C)nn2-c1ccccc1C (stereo unspecified),inactive: -14.4%,–
Cc1ccc(-c2nn3c(=O)cc(CN4CCN(C(=O)COc5ccc(C)c(C)c5)CC4)nc3s2)cc1,inactive: 3.34%,–
O=C(N/N=C/c1ccc([N+](=O)[O-])o1)c1cc([N+](=O)[O-])cc([N+](=O)[O-])c1O,inactive: -16%,–
CCC1(CC)C(=O)C=CNC1=O,inactive: -3.19%,–
Cc1ccc(-c2nc(CN3C(=O)CN=C(c4ccccc4)c4ccccc43)c(C)o2)cc1,inactive: 6.29%,–
CCN(CC)C(=O)c1ccc(NC(=O)c2ccc(-c3nn(C)c(=O)c4ccccc34)cc2)cc1,inactive: 6.72%,–
C[C@H](CN1CCOCC1)C(C(=O)N1CCCC1)(c1ccccc1)c1ccccc1,inactive: -0.319% [at 129 µM],–
Cc1ccc(Cn2cccc(C(=O)Nc3ccc4c(c3)OCCO4)c2=O)cc1,inactive: -20.5%,–
COc1ccccc1C1SCC(=O)Nc2c1c(C)nn2-c1cccc(C)c1 (stereo unspecified),inactive: -10.4%,–
COc1cccc(NC(=O)c2cccn(Cc3ccccc3C)c2=O)c1,inactive: -22.1%,–
COc1ccc(Cc2nccc3cc(OC)c(OC)cc23)cc1OC,inactive: -11.3%,–
CC1(C)C(C=C(Cl)Cl)C1C(=O)OC(C#N)c1cccc(Oc2ccccc2)c1 (stereo unspecified),inactive: -13.3%,–
Oc1cc(Cl)ccc1Oc1ccc(Cl)cc1Cl,inactive,–
CCn1cc2nc(SCc3c(F)cccc3Cl)n(CCc3ccccc3)c(=O)c2n1,inactive: -37.9%,–
CCCCC12CN3CC(C)(CN(C1)C3c1ccccn1)C2=O (stereo unspecified),inactive: -12.7%,–

SMILES,activation,Potency
CCCCCCCCCCCCCCCCCCN(C)C,inactive: -12.7%,–
Cc1cc(C)cc(OCC(=O)Nc2ccc(-c3nc4ccccc4s3)cc2)c1,–,active: 39.8 µM
Cc1cccc(-n2nc(C)c3c2NC(=O)CSC3c2ccccc2Cl)c1 (stereo unspecified),inactive: 1.85%,–
CCN(CC)C(C)C(=O)c1ccccc1 (stereo unspecified),inactive: -13.7%,–
CC(C)Cc1nc2cccnc2n1C1CCNCC1,inactive: 0.14%,–
CCOc1ccc(CN(CCc2ccc3c(c2)OCO3)Cc2ccc(C)cc2)cc1,inactive: -27.2%,–
O=C(N[C@@H]1N=C(c2ccccc2F)c2cccc3c2N(CC3)C1=O)c1cc2ccccc2[nH]1,inactive: 0.717%,–
Cc1ccc(NC(=O)Cn2cc(C(=O)c3ccccc3)c3ccccc32)c(C)c1,inactive: -31.3%,–
COc1ccc(-n2c(/C=C/c3cccc(F)c3)nc3ccccc3c2=O)cc1Cl,inactive: -3.72%,–
Cc1cccc(CN2C(=O)CN=C(c3ccccc3)c3ccccc32)c1,inactive: -28.6%,–
CCC(C)C(C)(COC(N)=O)COC(N)=O (stereo unspecified),inactive: -19%,–
COc1cc(CC#N)cc(OC)c1OC,inactive: -13.1%,–
COc1ccc2c3c1O[C@H]1[C@H](O)CC[C@H]4[C@@H](C2)N(C)CC[C@@]341,inactive: -4.38% [at 114 µM],–
COc1cccc(C2SCC(=O)Nc3c2c(C)nn3-c2ccc(C)c(Cl)c2)c1OC (stereo unspecified),inactive: -9.96%,–
CCc1nc(SC)ncc1C(=O)Nc1ccc(Cl)cc1C(=O)c1ccccc1,inactive: -12.3%,–
Cc1cccc(-c2nn3c(=O)cc(CN4CCN(C(=O)COc5ccc(Cl)cc5)CC4)nc3s2)c1,inactive: -0.772%,–
CC(C)=CCN1CC[C@@]2(C)c3cc(O)ccc3C[C@@H]1[C@@H]2C,inactive: -11.9% [at 114 µM],–
O=S1(=O)N(Cc2ccccc2Cl)CCCN1Cc1ccccc1Cl,inactive: -1.84%,–
COc1ccc(NC(=O)CCc2nc(C3=CCN(Cc4cccc(Cl)c4)CC3)no2)c(OC)c1,inactive: -23%,–
O=C(Nc1ccc2c(c1)OCO2)c1cccn(Cc2cccc([N+](=O)[O-])c2)c1=O,inactive: -18.7%,–
O=[N+]([O-])c1c2ccccc2cc2ccccc12,inactive: -12.1% [at 114 µM],–
Cc1ccccc1OCC(=O)N1CCN(CCc2ccccn2)CC1,inactive: -12.3%,–
C1CN2CCC1CC2,inactive: -20.4%,–

SMILES,activation,Potency
COP(=S)(OC)SCN1C(=O)c2ccccc2C1=O,inactive: -2.84%,–
CC1=C2[C@H]3OC(=O)[C@@H](C)[C@@H]3CC[C@@]2(C)C=CC1=O,inactive: -8.71%,–
COc1ccc(OCC(=O)N2CCN(Cc3cc(=O)n4nc(-c5ccc(OC)cc5)sc4n3)CC2)cc1,inactive: 2.52%,–
Cc1cccc(Cn2cccc(C(=O)Nc3ccc(F)cc3F)c2=O)c1,inactive: -24%,–
Cc1ccc(OCC(=O)N2CCN(CCc3ccncc3)CC2)cc1,inactive: -10.7%,–
CC(C)c1ccc(OCC(=O)N2CCN(CCc3ccccn3)CC2)cc1,inactive: -9.56%,–
O=C(O)c1ccc2[nH]cc(CCCCN3CC=C(c4ccccc4)CC3)c2c1,inactive: -13.2%,–
COc1ccc(OCC(=O)N2CCN(Cc3ccc(SC)cc3)CC2)cc1,inactive: -24.3%,–
CCC(CN)=C(c1ccccc1)c1ccccc1,inactive: -12.5%,–
O=[N+]([O-])c1cc([As](=O)(O)O)ccc1O,inactive: -16.5%,–
O=C(c1ccc2c(c1)N(Cc1ccc(F)cc1)C(=O)c1ccccc1S2)N1CCC2(CC1)OCCO2,inactive: -2.62%,–
Cc1ccccc1-n1c(/C=C/c2ccc(N(C)C)cc2)nc2ccccc2c1=O,inactive: -35.8%,–
Cc1nnc(NC(=O)c2cccn(Cc3cccc(F)c3)c2=O)s1,inactive: -9.53%,–
CCOc1ccc(CC(=O)NCCc2csc3nc(-c4ccccc4F)nn23)cc1,inactive: -35.2%,–
CC1N=C(N)OC1c1ccccc1 (stereo unspecified),inactive: 7.25% [at 114 µM],–
Cc1ccc(OCC(=O)Nc2ccc(Cl)cc2C(=O)c2ccccc2)cc1C,inactive: -5.09%,–
C[C@]12CC[C@@H]3c4ccc(OC(=O)N(CCCl)CCCl)cc4CC[C@H]3[C@@H]1CC[C@@H]2O,inactive: -6.75%,–
CCCCCCCCc1ccc(O)cc1,inactive: -6.53% [at 114 µM],–
COc1cccc(-c2nn3c(=O)cc(CN4CCN(C(=O)COc5ccccc5C)CC4)nc3s2)c1,inactive: -9.32%,–
CCOc1ccc2nc(NC(=O)c3cccn(Cc4ccccc4Cl)c3=O)sc2c1,inactive: -14.3%,–
CCOc1ccc(CN(CCc2ccc3c(c2)OCO3)Cc2ccc(OC)c(Br)c2)cc1,inactive: -20.2%,–
O=C(O)CCCCCCNC1c2ccccc2CCc2ccccc21,inactive: -14.8%,–
COc1cccc2c1C(=O)c1c(O)c3c(c(O)c1C2=O)C[C@@](O)(C(=O)CO)CC3OC1CC(N2CCOC(OC)C2)C(O)C(C)O1 (stereo partly specified),inactive: -27.2%,–

SMILES,activation,Potency
COP(=S)(OC)Oc1ccc(S(N)(=O)=O)cc1,inactive: -6.13%,–
CCN(CC)Cc1nccn1-c1ccc([N+](=O)[O-])cc1C(=O)c1ccccc1Cl,inactive: -8.04%,–
[N-]=[N+]=CC(=O)OC[C@H](N)C(=O)O,inactive: -8.33%,–
Cc1ccccc1CN1C(=O)C(C)N=C(c2ccccc2)c2ccccc21 (stereo unspecified),inactive: -8.65%,–
Cc1nc2ccccc2c(=O)n1-c1ccccc1Cl,inactive: -3.57% [at 114 µM],–
CCC(C)(C)c1ccc(O)cc1,inactive: -18.3%,–
CCCN1CCC[C@@H]2Cc3[nH]ncc3C[C@H]21,inactive: -13.9%,–
CC1NCCOC1c1ccccc1 (stereo unspecified),inactive: -10.7%,–
COc1cc(CCN)cc(OC)c1OC,inactive: 8.85% [at 129 µM],–
COc1ccc(CNC(=O)Cn2c(SCC(=O)Nc3ccc(C)c(C)c3)nc3ccccc32)cc1,inactive: -33.9%,–
C[C@@H]1O[C@@H](O[C@H]2C[C@@H](O)[C@]3(CO)[C@H]4[C@H](O)C[C@]5(C)[C@@H](C6=CC(=O)OC6)CC[C@]5(O)[C@@H]4CC[C@]3(O)C2)[C@H](O)[C@H](O)[C@H]1O,inactive: -6.17%,–
CC1Cc2ccccc2N1NC(=O)c1ccc(Cl)c(S(N)(=O)=O)c1 (stereo unspecified),inactive: -12.7%,–
C[C@@H](N)[C@@H](O)c1ccccc1,inactive: -17.6%,–
Cc1ccc(C(=O)Nc2ccccc2)cc1S(=O)(=O)N1CCCC1,inactive: -4.9%,–
CCC1(c2ccc(N)cc2)CCC(=O)NC1=O (stereo unspecified),inactive: -6.27%,–
ClC1=C(Cl)[C@]2(Cl)[C@@H]3[C@@H]4C[C@@H]([C@H]5O[C@@H]45)[C@@H]3[C@@]1(Cl)C2(Cl)Cl,inactive: -15.7% [at 114 µM],–
O=C(CCCCl)c1ccc(F)cc1,inactive: -10.5%,–
CNC(C)Cc1ccc2c(c1)OCO2 (stereo unspecified),inactive: -0.806% [at 129 µM],–
CCc1cc(OC)c(C[C@H](C)N)cc1OC,inactive: -1.03% [at 129 µM],–
NCCc1ccc(O)cc1,inactive: -16.4%,–
CN(C)C(=O)Oc1cc(OC(=O)N(C)C)cc(C(O)CNC(C)(C)C)c1 (stereo unspecified),inactive: -15%,–
Cc1ccc(C(C)C)c(OCC(=O)N2CCN(CCc3ccncc3)CC2)c1,inactive: -28.5%,–

# Source: PubChem BioAssay AID1159614 (National Center for Advancing Translational Sciences (NCATS), 2016)
